# In the supplement of paper PMC8728848:
# The other results are listed elsewhere or left out.
# Legend:
# Test in all cases: glycan array binding signal (z-score within array); higher = stronger binding
# Conditions in all cases: glycan notation: IUPAC condensed, linker removed
# [1] = target: GlcNAc(b1-3)Gal(b1-4)GlcNAc(b1-3)Gal(b1-4)GlcNAc(b1-3)GalNAc
# Procedure, shortened: (§1)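 The Consortium for Functional Glycomics database supplied 3228 glycan arrays, of which those lacking an available protein sequence were dropped. The binding signal, a within-array Z-score, was averaged across arrays of the same protein sequence and across linkers. Negative scores can be read as non-binding.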
# [2] = target: GlcNAc(b1-3)Gal(b1-4)GlcNAc(b1-3)GalNAc
# Procedure, shortened: as §1
# [3] = target: GlcNAc(b1-3)Gal(b1-4)GlcNAc(b1-3)[GlcNAc(b1-3)Gal(b1-4)GlcNAc(b1-3)]GalNAc
# Procedure, shortened: as §1
# [4] = target: GlcNAc(b1-3)Gal(b1-4)GlcNAc(b1-6)[Gal(b1-3)]GalNAc
# Procedure, shortened: as §1
# [5] = target: GlcNAc(b1-3)Gal(b1-4)GlcNAc(b1-6)[GlcNAc(b1-3)Gal(b1-3)]GalNAc
# Procedure, shortened: as §1
# [6] = target: GlcNAc(b1-3)Gal(b1-4)GlcNAc(b1-6)[GlcNAc(b1-3)]Gal(b1-4)GlcNAc
# Procedure, shortened: as §1
# GlcNAc(b1-3)GalNAc = target: GlcNAc(b1-3)GalNAc
# Procedure, shortened: as §1
# GlcNAc(b1-3)Man = target: GlcNAc(b1-3)Man
# Procedure, shortened: as §1
# [7] = target: GlcNAc(b1-3)[GlcNAc(b1-4)][GlcNAc(b1-6)]GlcNAc
# Procedure, shortened: as §1
# [8] = target: GlcNAc(b1-3)[GlcNAc(b1-6)]Gal(b1-4)GlcNAc
# Procedure, shortened: as §1
# [9] = target: GlcNAc(b1-3)[GlcNAc(b1-6)]GalNAc
# Procedure, shortened: as §1
# [10] = target: GlcNAc(b1-3)[GlcNAc(b1-6)]GlcNAc
# Procedure, shortened: as §1
# [11] = target: GlcNAc(b1-3)[GlcNAc(b1-6)]GlcNAc(b1-4)GlcNAc
# Procedure, shortened: as §1
# [12] = target: GlcNAc(b1-4)Gal(b1-4)GlcNAc
# Procedure, shortened: as §1
# GlcNAc(b1-4)GlcNAc = target: GlcNAc(b1-4)GlcNAc
# Procedure, shortened: as §1
# [13] = target: GlcNAc(b1-4)GlcNAc(b1-4)GlcNAc
# Procedure, shortened: as §1
# [14] = target: GlcNAc(b1-4)GlcNAc(b1-4)GlcNAc(b1-4)GlcNAc(b1-4)GlcNAc
# Procedure, shortened: as §1
# [15] = target: GlcNAc(b1-4)GlcNAc(b1-4)GlcNAc(b1-4)GlcNAc(b1-4)GlcNAc(b1-4)GlcNAc
# Procedure, shortened: as §1
# [16] = target: GlcNAc(b1-4)[GlcNAc(b1-6)]GalNAc
# Procedure, shortened: as §1
# [17] = target: GlcNAc(b1-6)Gal(b1-4)GlcNAc
# Procedure, shortened: as §1
# GlcNAc(b1-6)GalNAc = target: GlcNAc(b1-6)GalNAc
# Procedure, shortened: as §1
# GlcNAc3Prop(b1-4)GlcNAc = target: GlcNAc3Prop(b1-4)GlcNAc
# Procedure, shortened: as §1
# [18] = target: GlcNAc6S(b1-3)Gal(b1-4)GlcNAc
# Procedure, shortened: as §1
# Kdn(a2-3)Gal(b1-3)GalNAc = target: Kdn(a2-3)Gal(b1-3)GalNAc
# Procedure, shortened: as §1
# Kdn(a2-3)Gal(b1-3)GlcNAc = target: Kdn(a2-3)Gal(b1-3)GlcNAc
# Procedure, shortened: as §1
# Kdn(a2-3)Gal(b1-4)Glc = target: Kdn(a2-3)Gal(b1-4)Glc
# Procedure, shortened: as §1
# Kdn(a2-3)Gal(b1-4)GlcNAc = target: Kdn(a2-3)Gal(b1-4)GlcNAc
# Procedure, shortened: as §1
# [19] = target: Kdn(a2-3)Gal(b1-4)[Fuc(a1-3)]GlcNAc
# Procedure, shortened: as §1
# Kdn(a2-6)Gal(b1-4)GlcNAc = target: Kdn(a2-6)Gal(b1-4)GlcNAc
# Procedure, shortened: as §1
# [20] = target: Man(a1-2)Man(a1-2)Man(a1-3)Man
# Procedure, shortened: as §1
# [21] = target: Man(a1-2)Man(a1-2)Man(a1-3)[Man(a1-2)Man(a1-3)[Man(a1-2)Man(a1-6)]Man(a1-6)]Man(b1-4)GlcNAc(b1-4)GlcNAc
# Procedure, shortened: as §1
# [22] = target: Man(a1-2)Man(a1-2)Man(a1-3)[Man(a1-2)Man(a1-6)[Man(a1-3)]Man(a1-6)]Man(b1-4)GlcNAc(b1-4)GlcNAc
# Procedure, shortened: as §1
# [23] = target: Man(a1-2)Man(a1-2)Man(a1-6)[Man(a1-3)]Man
# Procedure, shortened: as §1
# Man(a1-2)Man(a1-3)Man = target: Man(a1-2)Man(a1-3)Man
# Procedure, shortened: as §1
# [24] = target: Man(a1-2)Man(a1-3)[Man(a1-2)Man(a1-6)]Man
# Procedure, shortened: as §1
# [25] = target: Man(a1-2)Man(a1-3)[Man(a1-2)Man(a1-6)]Man(a1-6)[Man(a1-2)Man(a1-2)Man(a1-3)]Man
# Procedure, shortened: as §1
# [26] = target: Man(a1-2)Man(a1-3)[Man(a1-2)Man(a1-6)]Man(a1-6)[Man(a1-2)Man(a1-2)Man(a1-3)]Man(b1-4)GlcNAc(b1-4)GlcNAc
# Procedure, shortened: as §1
# [27] = target: Man(a1-2)Man(a1-3)[Man(a1-3)[Man(a1-6)]Man(a1-6)]Man(b1-4)GlcNAc(b1-4)GlcNAc
# Procedure, shortened: as §1
# [28] = target: Man(a1-2)Man(a1-3)[Man(a1-6)]Man(a1-6)[Man(a1-2)Man(a1-3)]Man(b1-4)GlcNAc(b1-4)GlcNAc
# Procedure, shortened: as §1
# [29] = target: Man(a1-2)Man(a1-6)[Man(a1-3)]Man(a1-6)[Man(a1-2)Man(a1-2)Man(a1-3)]Man
# Procedure, shortened: as §1
# [30] = target: Man(a1-2)Man(a1-6)[Man(a1-3)]Man(a1-6)[Man(a1-2)Man(a1-2)Man(a1-3)]Man(b1-4)GlcNAc(b1-4)GlcNAc
# Procedure, shortened: as §1
# Man(a1-3)[Man(a1-6)]Man = target: Man(a1-3)[Man(a1-6)]Man
# Procedure, shortened: as §1
# [31] = target: Man(a1-3)[Man(a1-6)]Man(a1-6)[Man(a1-2)Man(a1-3)]Man(b1-4)GlcNAc(b1-4)GlcNAc
# Procedure, shortened: as §1
# [32] = target: Man(a1-3)[Man(a1-6)]Man(a1-6)[Man(a1-3)]Man
# Procedure, shortened: as §1
# [33] = target: Man(a1-3)[Man(a1-6)]Man(a1-6)[Man(a1-3)]Man(b1-4)GlcNAc(b1-4)GlcNAc
# Procedure, shortened: as §1
binder,measurement,setting,value
EEA (Euonymus europaeus) (protein) MASTIIATGPTYRVYCRAAPNYNMIVGKGVAFLAPIDETNELQYWYKDDTYSYIKDEAGLPAFSLVNKATGLTLKHSNHHPVPVKLVTYNPNVVDESVLWSQADDRGDGYSAIRSLTNPASHLEAAPLNDWSYNGAIIMGGVWIDAYNQQWKIEPHTG,glycan array binding signal (z-score),[1],-0.135
same,glycan array binding signal (z-score),[2],-0.156
same,glycan array binding signal (z-score),[3],-0.132
same,glycan array binding signal (z-score),[4],-0.17
same,glycan array binding signal (z-score),[5],-0.169
same,glycan array binding signal (z-score),[6],-0.133
same,glycan array binding signal (z-score),GlcNAc(b1-3)GalNAc,-0.237
same,glycan array binding signal (z-score),GlcNAc(b1-3)Man,-0.219
same,glycan array binding signal (z-score),[7],-0.125
same,glycan array binding signal (z-score),[8],-0.147
same,glycan array binding signal (z-score),[9],-0.152
same,glycan array binding signal (z-score),[10],-0.173
same,glycan array binding signal (z-score),[11],-0.286
same,glycan array binding signal (z-score),[12],-0.237
same,glycan array binding signal (z-score),GlcNAc(b1-4)GlcNAc,-0.172
same,glycan array binding signal (z-score),[13],-0.067
same,glycan array binding signal (z-score),[14],-0.058
same,glycan array binding signal (z-score),[15],-0.03
same,glycan array binding signal (z-score),[16],-0.204
same,glycan array binding signal (z-score),[17],0.013
same,glycan array binding signal (z-score),GlcNAc(b1-6)GalNAc,-0.056
same,glycan array binding signal (z-score),GlcNAc3Prop(b1-4)GlcNAc,-0.254
same,glycan array binding signal (z-score),[18],-0.236
same,glycan array binding signal (z-score),Kdn(a2-3)Gal(b1-3)GalNAc,-0.093
same,glycan array binding signal (z-score),Kdn(a2-3)Gal(b1-3)GlcNAc,-0.21
same,glycan array binding signal (z-score),Kdn(a2-3)Gal(b1-4)Glc,-0.177
same,glycan array binding signal (z-score),Kdn(a2-3)Gal(b1-4)GlcNAc,-0.196
same,glycan array binding signal (z-score),[19],-0.179
same,glycan array binding signal (z-score),Kdn(a2-6)Gal(b1-4)GlcNAc,-0.179
same,glycan array binding signal (z-score),[20],-0.22
same,glycan array binding signal (z-score),[21],-0.18
same,glycan array binding signal (z-score),[22],-0.098
same,glycan array binding signal (z-score),[23],-0.197
same,glycan array binding signal (z-score),Man(a1-2)Man(a1-3)Man,-0.14
same,glycan array binding signal (z-score),[24],-0.291
same,glycan array binding signal (z-score),[25],-0.213
same,glycan array binding signal (z-score),[26],-0.112
same,glycan array binding signal (z-score),[27],-0.093
same,glycan array binding signal (z-score),[28],-0.013
same,glycan array binding signal (z-score),[29],-0.228
same,glycan array binding signal (z-score),[30],0.811
same,glycan array binding signal (z-score),Man(a1-3)[Man(a1-6)]Man,-0.159
same,glycan array binding signal (z-score),[31],0.066
same,glycan array binding signal (z-score),[32],-0.12
same,glycan array binding signal (z-score),[33],1.16
